# Data taken from the supplement of paper PMC10126150.
# Sequences with one replicate were seen in a single cluster, so their values are uncertain.
# Tested on: ATP
# Test: switch fluorescence ratio, 500 uM ATP over buffer (Cy3 cluster intensity, sum of 5 cycles each) (fold (ratio)); higher = stronger signal-on switching upon ATP binding; sequences stand for … in TCGTCGGCAGCGTCAGATGTGTATAAGAGACAGTTTTTTTTTTTTTTTTTTTTTTTTT…TC
# Conditions: aptamer strand: ATP DNA aptamer (quencher-CACCTGGGGGAGTATTGCGGAGGAAGG + anchor), 100 nM annealed; ATP concentration: 500 uM; one replicate
# In short: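 The fluorescence ratio divides summed target-cycle Cy3 intensity by summed buffer-cycle Cy3 intensity for each cluster and is averaged per switch-domain sequence. Cy3-labelled switching-strand clusters on a modified Illumina MiSeq flow-cell were annealed to 100 nM quencher-labelled ATP aptamer, then imaged in selection buffer and again after 15 min with 500 uM ATP at 22 °C. Five such cycles were run, with NaOH stripping and re-annealing between them, and clusters outside 100-1000 RFU were excluded.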
# 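Also: ATP exposure 15 min at 22 °C before imaging.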
row,Sequence,switch fluorescence ratio
1,AGCAGCCTCG,1.04
2,GGGAAAGTGC,1.13
3,CTTGTGCGT,1.03
4,CAAATCTCA,0.974
5,CGTTAAGGGG,1.01
6,TGGGTACTC,0.966
7,CCTAGATCGT,0.958
8,GGGCGCTGCT,1.01
9,CACTCGTAGG,1.02
10,CGTGCGGGCG,0.942
11,TACACGACTA,1.16
12,CTAGTTGTAT,1.01
13,TCAGCTCTGT,0.986
14,TATGCTATTT,0.966
15,TTTTGATA,1.03
16,GATAACTGCG,1.02
17,AGACAGTTCT,0.983
18,TGATATGGTG,0.985
19,TTGTTTGGTC,0.958
20,AACCTAGGGG,1.06
21,AAGCTAAGGA,0.998
22,CGAGAACAGC,0.975
23,CTATCTGAAT,0.973
24,GAATCGCGCG,0.968
25,GCTGCTCAGG,1.08
26,TGGTAGTGTC,1.02

row,Sequence,switch fluorescence ratio
1,ACATAACATT,1.15
2,AGAACAAGGG,0.964
3,CGTGGAAGAA,0.981
4,TCGCTAGACC,1.36
5,GCGCACGGTC,1.1
6,CAATAAGTTC,0.974
7,AGGTTCTAAG,0.972
8,GAATTCGGTT,0.993
9,AGGGATCTGT,1.01
10,CGTATGTTAA,1.02
11,TTAGGTCAAA,0.995
12,CGGCGGATCG,0.997
13,CTTATTAGCA,1.01
14,TTAAGTGAGA,0.959
15,TATAGGT,0.982
16,CATCATGGAA,1.05
17,TCACATCTAA,1.03
18,TGCGGGGCCT,1.03
19,ACTGGTACGA,1.13
20,ATAATGAATT,0.987
21,GACCGTTGAC,1.11
22,GATAACTCAG,0.957
23,TTAATGCGAG,1.02
24,GATTCGGAAA,1.02
25,AGCTCGTACC,0.996
26,CACGAGCGT,0.995

row,Sequence,switch fluorescence ratio
1,GGGACATTTC,1.04
2,TTACTTAGTG,1.04
3,GCTGAGGAGT,1
4,TAGCATCCAG,1.03
5,ATCCGGTCAA,1.61
6,GATCCCATTG,0.983
7,AGTCTAGTCA,0.996
8,CAGCTATCT,1.08
9,GTGGTTATTA,0.993
10,CGGAGTTAGG,0.99
11,ATAGCAAGTT,1.06
12,CCATTCTTTG,1.01
13,TCTACGACTC,1.19
14,AGGCTAAAGT,0.952
15,CAATAAAGTA,1.04
16,GCGCAGGGAC,2.44
17,CGAACGTTAC,3.67
18,TCGGCGCCTA,0.978
19,TGTCTTTCTT,1.02
20,ATACTGGCGC,1.14
21,CTGACGTTG,1.04
22,CCTATCTGAA,1.02
23,AGCCTTTAAT,1.02
24,GTATAGCAG,0.992
25,ATCTGCGTGG,0.99
26,GTCTGGGATT,1.02

row,Sequence,switch fluorescence ratio
1,ATTTTGGGT,1.01
2,TTGGGAAGAG,1.01
3,AGAGTGTTAG,0.963
4,TAATGTGGTG,1.05
5,GAGATGGGTT,1.07
6,TTCGATAAGC,1.01
7,AGTCACTCAT,0.987
8,GTTTAAAAGT,0.998
9,TTGCCGTACG,1.04
10,TCCGAGGTGC,2.85
11,AGCCACGGGG,0.972
12,GGGAAAACTC,1.06
13,CGGGCTTTC,1.05
14,ACGCTGAGTT,1.02
15,TTGGGATCCA,1.03
16,TATTGTGCAA,1.11
17,CTGCTGCGTA,1.02
18,AGATTCACAG,1.01
19,TTTACGGT,1.02
20,TGTATATAGT,0.998
21,AAGGCTCG,0.991
22,GGAGCTAGCT,0.97
23,TGATACGACT,1.05
24,TAACGGCTCG,1.03
25,ACCTTCCCCC,3.36
26,TTGTTTCTG,0.958

row,Sequence,switch fluorescence ratio
1,TTTCAAGCTG,1.09
2,ACATTAGCCC,1.03
3,GTCCAGCCAG,1.03
4,TCGAAAGTGA,1.03
5,TGAATTATC,1.03
6,CCCTAATAAA,1.04
7,CAGATTTAAC,0.99
8,GACGTCTCTA,0.992
9,AATAAAGCAC,1.1
10,TTCCCCTGTA,1.28
11,GCTGAAGAGA,0.98
12,TGACGAGGAG,0.972
13,AAACATACG,1.31
14,TACACAACT,1.14
15,TTCTCCCGTT,1.12
16,ATAAATATAA,0.992
17,CCGGACCTGG,1.07
18,GGAAGCAGAT,1
19,GACACGGCGT,1.05
20,GTAACCAA,1.09
21,CATAATGTG,0.957
22,TATATTGCAG,1.01
23,TTTGTACCAG,1.05
24,GTCATGGTTG,0.938
25,CCAACGGCCG,1.06
26,CATATAGTG,0.963

row,Sequence,switch fluorescence ratio
1,ACTGACTTTT,1.1
2,TCTCAGTTAT,0.986
3,TCGTGGAGAG,0.98
4,TTTCACTGAT,1.02
5,GATAACACGT,0.981
6,TGGAAATGGG,0.974
7,CCAACGGGCT,1.03
8,TTCTTGAGAC,1.04
9,GCGGGTCACT,1.02
10,CGCTGCATCC,2.17
11,GCTCTGGGTT,1.02
12,TCGGATACCG,0.926
13,CTAATAATGT,0.973
14,CTGTCAGCTG,1.01
15,TTCTAAT,0.979
16,GGCATCAATA,1.02
17,CCACAGTCG,1.08
18,AAGCTCGCGG,1.03
19,ATGTGAGGGC,1.08
20,TGATGGCTAT,0.948
21,GGAATGAATC,1
22,TTGTATTGAA,0.963
23,TTCCGCGTAT,2.42
24,GGCGTTCAGG,1.01
25,CCTTAAGTAC,2.98
26,CTACGTTTGC,2.6

row,Sequence,switch fluorescence ratio
1,ACTTTCCCTG,1.16
2,AGGGACTGCG,0.984
3,GGTTATAGAG,0.986
4,CAGGACTAGG,1.01
5,TAAACGCACT,1.65
6,AGTCATATAC,2.67
7,CTAGTAAGGA,0.982
8,CACGGCCGGT,0.996
9,CGGATATAAA,1
10,GCAGCCGGGG,1.01
11,TGAGGTACCC,1.02
12,AGGGCGGCGC,0.96
13,AGTTATTCTC,1.44
14,GCCAGTTAAT,1.01
15,CGTCGTGAAA,1.04
16,TTGTGAACTG,1.12
17,ATAACGTTCT,1.03
18,CAAGAAGCGA,1.03
19,AGATTGTTTT,1.02
20,GTGTCCCCAT,0.984
21,CATCCCAGTG,3.04
22,AGGGGGGTGC,1.03
23,CCGCTTAGTA,1.37
24,CGTAGAGCT,0.977
25,ACACCGATTT,1.06
26,TACCGACTGA,1.3

row,Sequence,switch fluorescence ratio
1,CGCTGCGAGG,1.04
2,GTCACCGCGA,2.73
3,ATGCTAGGTC,0.962
4,CGGCACTCGT,0.985
5,AGGAACGAT,1.01
6,GATGATATGT,0.983
7,CTAACCAACC,1.18
8,TGAGGTCAAC,0.989
9,AATTAGTTTC,0.991
10,CCTAAAGTCT,1.03
11,TGGAGTCCAG,1.03
12,TTTGTTAAAG,0.987
13,GGGATCAAAG,1.04
14,AGGTACTACG,1.05
15,ACAAAGTATG,0.996
16,CAGGAAGGCC,0.965
17,AGGCTAGTCG,1.04
18,GCCTTATAT,0.995
19,GGAAACGCTA,1.26
